The results in this text go back to the supplement of paper PMC9446081.

Among all 39,000 compounds or so, about 220 (0.56%) showed activity. The list shows a part of the results.
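Note: static incubation at 37 °C against the wild-type strain, values averaged over two biological replicates.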

For the assay, the system named is Escherichia coli K-12 BW25113. The assay is described as follows: relative growth (OD600 normalised to plate interquartile mean) (fraction); higher = less growth inhibition, active = 0.2 or less. The settings on record: 50 µM; LB; incubation time: overnight (16-24 h).
As for `C[C@@H]1CN([C@H](C)CO)C(=O)c2ccccc2-c2ccccc2CO[C@@H]1CN(C)C(=O)N[C@H](C)c1ccccc1`, the relative growth was inactive: 1.01.
To `C[C@H]1CN([C@@H](C)CO)C(=O)c2cccc(NS(=O)(=O)c3ccc(Cl)cc3)c2O[C@@H]1CN(C)S(=O)(=O)c1cn(C)cn1` belongs inactive: 0.975.
In the case of `C[C@@H]1CN([C@@H](C)CO)C(=O)c2cc(NC(=O)Nc3ccc(F)cc3)ccc2O[C@H]1CN(C)S(=O)(=O)c1cn(C)cn1` it was inactive: 1.02; in that of `C[C@@H]1CCCCO[C@H](CN(C)C(=O)Nc2ccc3c(c2)OCO3)[C@H](C)CN([C@@H](C)CO)C(=O)c2cc(NC(=O)Nc3ccccc3)ccc2O1`, inactive: 1.02.
In the case of `C[C@@H]1CCCCO[C@@H](CN(C)S(C)(=O)=O)[C@H](C)CN([C@H](C)CO)C(=O)c2cc(NS(=O)(=O)c3cn(C)cn3)ccc2O1` it was inactive: 0.996; in that of `Cl.Cl.Fc1ccc(C(c2ccc(F)cc2)N2CCN(CC=Cc3ccccc3)CC2)cc1`, inactive: 0.939; in that of `CCCC#Cc1ccc2c(c1)O[C@@H](CN(C)Cc1ccc3c(c1)OCO3)[C@@H](C)CN([C@@H](C)CO)S2(=O)=O`, inactive: 1.01.
Consider `Cc1noc(C)c1S(=O)(=O)Nc1ccc2c(c1)C(=O)N([C@H](C)CO)C[C@H](C)[C@H](CN(C)Cc1ccc(Cl)c(Cl)c1)OCCCC[C@@H](C)O2`, for which the relative growth is inactive: 0.981.
To `Cc1noc(C)c1S(=O)(=O)N(C)C[C@@H]1Oc2ccc(NC(=O)CCCN(C)C)cc2CC(=O)N([C@@H](C)CO)C[C@H]1C` belongs inactive: 0.986.
To `C[C@H]1CN([C@@H](C)CO)C(=O)c2cccc(NC(=O)C3CCCCC3)c2O[C@@H]1CN(C)Cc1ccc(C(F)(F)F)cc1` belongs inactive: 0.935.
In the case of `C=CCOC(=O)O[C@H]1[C@@H](OC)O[C@H](COC(=O)NCCCCCC(=O)NO)[C@@H](OC(=O)[C@H](CC=C)Cc2cccc(Br)c2)[C@@H]1OC(=O)[C@H](CC=C)Cc1ccccc1` it was inactive: 1; in that of `C[C@@H]1CCCCO[C@H](CN(C)S(=O)(=O)c2ccccc2)[C@H](C)CN([C@@H](C)CO)C(=O)c2cc(NC(=O)Nc3cccc4ccccc34)ccc2O1`, inactive: 1.05; in that of `COc1ccc(NC(=O)Nc2ccc3c(c2)C(=O)N([C@@H](C)CO)C[C@@H](C)[C@H](CN(C)C(=O)Nc2ccccc2)OCCCC[C@H](C)O3)cc1`, inactive: 1.04.
Take `NC1C(OC2C(C(=O)[O-])OC(COC3C(CO)OC(O)C(O)C3O)C(OS(=O)(=O)[O-])C2O)OC(COS(=O)(=O)[O-])C(O)C1O` (stereo unspecified): the relative growth was inactive: 1.01.
On to `CC(C)=CCc1c(O)cc2oc(C)cc(=O)c2c1O`, for which the relative growth is inactive: 0.958.
To `COc1ccccc1C#Cc1cnc2c(c1)C(=O)N([C@H](C)CO)C[C@H](C)[C@H](CN(C)C(=O)CN(C)C)O2` belongs inactive: 0.992.
In the case of `C[C@H](CO)N1C[C@H](C)[C@H](CN(C)C(=O)NC2CCCCC2)Oc2ncc(C#CC(C)(C)O)cc2C1=O` it was inactive: 1.03.
To `C[C@H](CO)N1C[C@H](C)[C@H](CN(C)C(=O)CCCN(C)C)OCc2cnnn2CCCC1=O` belongs inactive: 0.947.
In the case of `COc1ccc(NC(=O)N(C)C[C@H]2OCCCC[C@H](C)Oc3ccc(NS(=O)(=O)c4ccc(F)cc4)cc3C(=O)N([C@@H](C)CO)C[C@H]2C)cc1`, the relative growth was inactive: 1.01.
To `O=C1O[C@H](c2ccccc2)[C@H](c2ccccc2)N2[C@H]1[C@@H](C(=O)N1CCCCCCC1)[C@]1(C(=O)Nc3ccc(C#CC4=CCCCC4)cc31)[C@H]2c1ccccc1OCCO` belongs inactive: 1.06; to `CC(C)NC(=O)N(C)C[C@@H]1Oc2ccc(NC(=O)Cc3ccccc3)cc2C(=O)N([C@H](C)CO)C[C@@H]1C`, inactive: 0.995.
Turning to `C[C@@H]1CN([C@H](C)CO)C(=O)c2cc(NC(=O)Nc3ccc(C(F)(F)F)cc3)ccc2O[C@@H](C)CCCCO[C@H]1CN(C)Cc1ccccc1`, the relative growth is inactive: 0.993.
In the case of `Cc1noc(C)c1S(=O)(=O)Nc1ccc2c(c1)CC(=O)N([C@@H](C)CO)C[C@@H](C)[C@H](CN(C)S(=O)(=O)c1cn(C)cn1)O2` it was inactive: 1.04.
To `Cc1noc(C)c1NC(=O)Nc1ccc2c(c1)C(=O)N([C@H](C)CO)C[C@@H](C)[C@H](CN(C)S(=O)(=O)c1ccc(Cl)cc1)OCCCC[C@H](C)O2` belongs inactive: 0.981.
To `C[C@@H]1CN([C@@H](C)CO)C(=O)c2cc(NC(=O)Nc3ccc4c(c3)OCO4)ccc2O[C@@H](C)CCCCO[C@@H]1CN(C)S(=O)(=O)c1cccs1` belongs inactive: 1.02; to `C[C@H](CO)N1C[C@H](C)[C@H](CN(C)C(=O)Nc2ccc(F)cc2)OCCCC[C@H](C)Oc2ccc(NC(=O)Nc3cccc4ccccc34)cc2C1=O`, inactive: 1.05; to `CC(=O)OC/C=C(\C)CCC=C(C)C`, inactive: 0.989.
Regarding `COc1ccc(S(=O)(=O)N(C)C[C@H]2Oc3ccc(NC(=O)C4CC4)cc3CC(=O)N([C@@H](C)CO)C[C@@H]2C)cc1`, the relative growth was inactive: 0.868.
In the case of `C[C@H](CO)N1C[C@H](C)[C@H](CN(C)Cc2ccc(-c3ccccc3)cc2)Oc2c(NC(=O)C3CCCCC3)cccc2C1=O` it was inactive: 1.02; in that of `COCCCNC(=O)[C@@]1(Sc2ccc(C)cc2)CC(=O)N(Cc2ccccc2C(F)(F)F)[C@@H]1c1ccc(CO)cc1I`, inactive: 1.01.
For the compound `COc1ccc(S(=O)(=O)N(C)C[C@@H]2OCc3cnnn3CCCC(=O)N([C@@H](C)CO)C[C@@H]2C)cc1`, the relative growth is inactive: 0.986.
In the case of `N#Cc1ncccn1` it was inactive: 1.02; in that of `CN1C(C(=O)Nc2ccccn2)=C(O)c2sc(Cl)cc2S1(=O)=O`, inactive: 0.982; in that of `COc1cccc(C#Cc2ccc3c(c2)O[C@H](CN(C)S(=O)(=O)c2ccccc2F)[C@H](C)CN([C@H](C)CO)S3(=O)=O)c1`, inactive: 1.03.
In the case of `C[C@H]1CN([C@@H](C)CO)C(=O)Cc2cc(NC(=O)Cn3cnnn3)ccc2O[C@@H]1CN(C)S(=O)(=O)c1ccc(F)cc1` it was inactive: 0.986; in that of `CC(=O)O[C@H](C[C@H](O)[C@@](C)(CCC=C(C)C)O[C@H]1O[C@@H](CO)[C@@H](O)[C@@H](O)[C@@H]1O)/C(C)=C/COC[C@@H](O)[C@@H](O)[C@@H](O)[C@@H](O)CO`, inactive: 1.01; in that of `COc1ccc([C@@H]2CC(=O)c3c(O)cc(O[C@@H]4O[C@H](CO[C@@H]5O[C@@H](C)[C@H](O)[C@@H](O)[C@H]5O)[C@@H](O)[C@H](O)[C@H]4O)cc3O2)cc1O`, inactive: 1.02.
In the case of `CCCNC(=O)N1CC[C@]2(CC1)CN([C@@H](CO)c1[nH]c3cc(ccc3c12)OC)C(=O)CN1CCOCC1` it was inactive: 0.998.
As for `CCS(=O)(=O)N1CCO[C@]2(COCCN(c3cncnc3)C2)C1`, the relative growth is inactive: 0.997.
In the case of `CC(C)NC(=O)Nc1cccc2c1O[C@@H](CN(C)S(=O)(=O)c1cn(C)cn1)[C@@H](C)CN([C@@H](C)CO)C2=O` it was inactive: 0.991; in that of `CN(C)C(=O)C[C@@H]1CC[C@@H]2[C@H](COC[C@H](O)CN2S(=O)(=O)c2ccc(Oc3ccccc3)cc2)O1`, inactive: 0.997.
In the case of `C[C@H](CO)N1C[C@H](C)[C@H](CN(C)Cc2ccccc2)Oc2ccc(NC(=O)CCN3CCOCC3)cc2CC1=O` it was inactive: 0.988; in that of `C[C@H](CO)N1C[C@H](C)[C@@H](CN(C)C(=O)Nc2cccc3ccccc23)Oc2ccc(NC(=O)Cc3cn(C)c4ccccc34)cc2CC1=O`, inactive: 1.03.
In the case of `Cc1ccc(S(=O)(=O)N(C)C[C@@H]2Oc3c(NC(=O)C4CCOCC4)cccc3C(=O)N([C@@H](C)CO)C[C@@H]2C)cc1` it was inactive: 0.987; in that of `CO[C@H]1CN(C)C(=O)c2ccc(NC(=O)Nc3ccccc3)cc2OC[C@@H](C)N(C(=O)CN(C)C)C[C@@H]1C`, inactive: 0.986; in that of `CC(C)C[C@@H](NS(=O)(=O)c1ccc2[nH]c(=O)c(=O)[nH]c2c1)C(=O)O`, inactive: 1.02.
On to `C[C@H](CO)N1C[C@H](C)[C@H](CN(C)Cc2ccc(Cl)c(Cl)c2)Oc2ccc(NC(=O)Nc3ccc(C(F)(F)F)cc3)cc2C1=O`, for which the relative growth is inactive: 1.02.
To `C[C@@H]1CN([C@@H](C)CO)C(=O)CCCn2nncc2CO[C@@H]1CN(C)S(=O)(=O)c1ccc(Cl)cc1` belongs inactive: 0.995; to `CN[C@@H]1[C@@H](O)[C@@H](O[C@@H]2[C@@H](O)[C@H](O[C@H]3OC(CN)=CC[C@H]3N)[C@@H](N)C[C@H]2N)OC[C@]1(C)O`, inactive: 1.01; to `C[C@@H]1CN([C@@H](C)CO)S(=O)(=O)c2ccc(C#CC(C)(C)O)cc2O[C@@H]1CN(C)Cc1ccc(F)cc1`, inactive: 1.02.
In the case of `C[C@@H]1CN([C@@H](C)CO)C(=O)Cc2cc(NC(=O)C3CC3)ccc2O[C@@H]1CN(C)C(=O)Nc1ccccc1` it was inactive: 1.01; in that of `C[C@H]1CCCCO[C@@H](CN(C)S(=O)(=O)c2ccc(Cl)cc2)[C@@H](C)CN([C@@H](C)CO)C(=O)c2cc(NS(=O)(=O)c3ccccc3)ccc2O1`, inactive: 1.05.
For `C[C@@H]1CN([C@@H](C)CO)C(=O)c2cccc(NC(=O)Nc3cccc4ccccc34)c2O[C@H]1CN(C)C(=O)NC1CCCCC1`, the relative growth was inactive: 1.01.
With `O=C(C[C@H]1C=C[C@@H](NC(=O)c2ccncc2)[C@@H](CO)O1)NCc1ccncn1`, the relative growth is inactive: 0.996.
In the case of `Cc1noc(C)c1NC(=O)Nc1ccc2c(c1)C(=O)N([C@H](C)CO)C[C@@H](C)[C@H](CN(C)C(=O)Nc1ccc(F)cc1)OCCCC[C@H](C)O2` it was inactive: 1.01; in that of `C[C@@H]1CCCCO[C@@H](CN(C)C(=O)Nc2ccc(C(F)(F)F)cc2)[C@@H](C)CN([C@H](C)CO)C(=O)c2cc(NC(=O)CCCCCC(=O)Nc3ccccc3N)ccc2O1`, inactive: 0.988.
